What all share (test): glycan array binding signal (z-score within array); higher = stronger binding
Details in all cases: glycan notation: IUPAC condensed, linker removed

Experiment [1] addresses Gal(b1-4)GlcNAc(b1-3)Gal(b1-4)GlcNAc(b1-3)Gal(b1-4)GlcNAc(b1-3)Gal(b1-4)GlcNAc(b1-2)Man(a1-3)[Gal(b1-4)GlcNAc(b1-3)Gal(b1-4)GlcNAc(b1-3)Gal(b1-4)GlcNAc(b1-3)Gal(b1-4)GlcNAc(b1-2)Man(a1-6)]Man(b1-4)GlcNAc(b1-4)[Fuc(a1-6)]GlcNAc. The method, boiled down:
(§1)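 The binding signal is a Z-score computed within each array. Data were drawn from 3228 arrays in the Consortium for Functional Glycomics database, restricted to those with a known protein sequence. Scores were averaged over arrays of the same protein sequence at different concentrations or buffers, and over linkers, and negative values can be taken as non-binding.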

The target in experiment [2] is Gal(b1-4)GlcNAc(b1-3)Gal(b1-4)GlcNAc(b1-3)Gal(b1-4)GlcNAc(b1-3)Gal(b1-4)GlcNAc(b1-2)[Gal(b1-4)GlcNAc(b1-3)Gal(b1-4)GlcNAc(b1-3)Gal(b1-4)GlcNAc(b1-3)Gal(b1-4)GlcNAc(b1-6)]Man(a1-6)[Gal(b1-4)GlcNAc(b1-3)Gal(b1-4)GlcNAc(b1-3)Gal(b1-4)GlcNAc(b1-3)Gal(b1-4)GlcNAc(b1-2)Man(a1-3)]Man(b1-4)GlcNAc(b1-4)[Fuc(a1-6)]GlcNAc. The method, boiled down: as §1
Experiment [3] has as its target Gal(b1-4)GlcNAc(b1-3)Gal(b1-4)GlcNAc(b1-3)Gal(b1-4)GlcNAc(b1-3)Gal(b1-4)GlcNAc(b1-3)Gal(b1-4)GlcNAc(b1-2)Man(a1-3)[Gal(b1-4)GlcNAc(b1-3)Gal(b1-4)GlcNAc(b1-3)Gal(b1-4)GlcNAc(b1-3)Gal(b1-4)GlcNAc(b1-3)Gal(b1-4)GlcNAc(b1-2)Man(a1-6)]Man(b1-4)GlcNAc(b1-4)GlcNAc. The method, boiled down:
as §1

Experiment [4] addresses Gal(b1-4)GlcNAc(b1-3)Gal(b1-4)GlcNAc(b1-3)Gal(b1-4)GlcNAc(b1-3)Gal(b1-4)GlcNAc(b1-3)Gal(b1-4)GlcNAc(b1-2)Man(a1-3)[Gal(b1-4)GlcNAc(b1-3)Gal(b1-4)GlcNAc(b1-3)Gal(b1-4)GlcNAc(b1-3)Gal(b1-4)GlcNAc(b1-3)Gal(b1-4)GlcNAc(b1-2)Man(a1-6)]Man(b1-4)GlcNAc(b1-4)[Fuc(a1-6)]GlcNAc. The method, boiled down: as §1
The target in experiment [5] is Gal(b1-4)GlcNAc(b1-3)Gal(b1-4)GlcNAc(b1-3)Gal(b1-4)GlcNAc(b1-3)Gal(b1-4)GlcNAc(b1-3)Gal(b1-4)GlcNAc(b1-2)[Gal(b1-4)GlcNAc(b1-3)Gal(b1-4)GlcNAc(b1-3)Gal(b1-4)GlcNAc(b1-3)Gal(b1-4)GlcNAc(b1-3)Gal(b1-4)GlcNAc(b1-6)]Man(a1-6)[Gal(b1-4)GlcNAc(b1-3)Gal(b1-4)GlcNAc(b1-3)Gal(b1-4)GlcNAc(b1-3)Gal(b1-4)GlcNAc(b1-3)Gal(b1-4)GlcNAc(b1-2)Man(a1-3)]Man(b1-4)GlcNAc(b1-4)[Fuc(a1-6)]GlcNAc. The method, boiled down:
as §1

Experiment [6] concerns the target Gal(b1-4)GlcNAc(b1-3)Gal(b1-4)GlcNAc(b1-3)Gal(b1-4)GlcNAc(b1-3)Gal(b1-4)GlcNAc(b1-3)Gal(b1-4)GlcNAc(b1-3)Gal(b1-4)GlcNAc(b1-2)Man(a1-3)[Gal(b1-4)GlcNAc(b1-3)Gal(b1-4)GlcNAc(b1-3)Gal(b1-4)GlcNAc(b1-3)Gal(b1-4)GlcNAc(b1-3)Gal(b1-4)GlcNAc(b1-3)Gal(b1-4)GlcNAc(b1-2)Man(a1-6)]Man(b1-4)GlcNAc(b1-4)GlcNAc. The method, boiled down:
as §1

Experiment [7] concerns the target Gal(b1-4)GlcNAc(b1-3)Gal(b1-4)GlcNAc(b1-3)GalNAc. Put shortly:
as §1

The target in experiment [8] is Gal(b1-4)GlcNAc(b1-3)Gal(b1-4)GlcNAc(b1-3)[Gal(b1-4)GlcNAc(b1-3)Gal(b1-4)GlcNAc(b1-6)]GalNAc. The method, boiled down:
as §1

In experiment [9] the target is Gal(b1-4)GlcNAc(b1-3)Gal(b1-4)GlcNAc(b1-6)[Gal(b1-3)]GalNAc. Put shortly: as §1
Experiment [10] has as its target Gal(b1-4)GlcNAc(b1-3)Gal(b1-4)[Fuc(a1-3)]GlcNAc(b1-3)Gal(b1-4)[Fuc(a1-3)]GlcNAc. Put shortly: as §1
Experiment [11] addresses Gal(b1-4)GlcNAc(b1-3)GalNAc. Put shortly: as §1
Experiment [12] deals with Gal(b1-4)GlcNAc(b1-3)[Fuc(a1-3)GlcNAc(b1-6)]Gal(b1-4)Glc. The method, boiled down: as §1
The target of experiment [13] is Gal(b1-4)GlcNAc(b1-3)[Gal(b1-4)GlcNAc(b1-6)]Gal(b1-4)GlcNAc. The method, boiled down:
as §1

Experiment [14] addresses Gal(b1-4)GlcNAc(b1-3)[GlcNAc(b1-6)]Gal(b1-4)GlcNAc. Put shortly: as §1
Experiment [15] concerns the target Gal(b1-4)GlcNAc(b1-6)Gal(b1-4)GlcNAc. Put shortly: as §1
The target of experiment [16] is Gal(b1-4)GlcNAc(b1-6)GalNAc. The method, boiled down:
as §1

Experiment [17] deals with Gal(b1-4)GlcNAc(b1-6)[Gal(b1-3)]GalNAc. The method, boiled down: as §1
The target in experiment [18] is Gal(b1-4)GlcNAc(b1-6)[Gal(b1-4)GlcNAc(b1-3)]GalNAc. The method, boiled down: as §1
Experiment [19] concerns the target Gal(b1-4)GlcNAc6P. The method, boiled down:
as §1

Experiment [20] concerns the target Gal(b1-6)Gal. The method, boiled down: as §1
The target of experiment [21] is Gal3S(b1-3)GalNAc. Put shortly:
as §1

The target in experiment [22] is Gal3S(b1-3)GlcNAc. The method, boiled down: as §1
Experiment [23] deals with Gal3S(b1-3)[Fuc(a1-4)]GlcNAc. Put shortly:
as §1

The other results are listed elsewhere or left out.

B1: NKR-PIC (Mus musculus) (protein)
chain: GTGQKPSREKCCVFIQENLNKTTDCSVNLECPQDWLLHRDKCFHVSQVSNTWEEGQADCGRKGATLLLIQDQEELRFLLDSIKEKYNSFWIGLRFTLPDMNWKWINGTTFNSDVLKITGVTENGSCASILGDKVTPESCASDNRWICQKELNHETPSNDSGT
Regarding B1, the “glycan array binding signal (z-score)” value is -0.255 in [1]; -0.277 in experiment [2]; -0.32 in experiment [3]; -0.224 in [4]; -0.18 in experiment [5]; 0.128 in experiment [6]. The “glycan array binding signal (z-score)” value in experiment [7] is -0.274; in experiment [8], -0.348; in [9] it was -0.201; in [10] it was -0.39; in experiment [11], -0.29; in experiment [12], -0.342. Moreover, the “glycan array binding signal (z-score)” value is -0.33 in [13]; 3.35 in experiment [14]; -0.109 in experiment [15]; 2.41 in [16]; -0.318 in [17]; -0.232 in [18]. For the same molecule, the “glycan array binding signal (z-score)” value in experiment [19] is -0.272; in experiment [20], -0.371; in [21], -0.25; in [22] it was -0.292; in experiment [23] it was -0.318.
